# Measured values: PMC5700166
# This is a selection; strong and weak results do not stand in their true shares. The list includes weakly bound sequences.
# Experiments:
# Experiment in all cases: protein-binding microarray (PBM)
# Conditions in all cases: PBM: ~300 nM protein, 6 mM HEPES pH 7.8, 80 mM KCl, 0.5 mM EDTA, 0.5 mM EGTA, 6% glycerol, 35 ng/ul poly-dIdC, 1% milk, 1 h, room temperature; Ap Aiptasia and Nv Nematostella (sea anemones) / Co Capsaspora / Aq Amphimedon (sponge) / Dm Drosophila / Hu human; RHD is the Rel homology domain; high values mean tight binding; most listed sequences are background and not binding sites; double strand, one strand shown
# [1] = biological target: T1, GST-Ap-NF-kB RHD (UniProt A0A913YAJ5)
# T1 sequence: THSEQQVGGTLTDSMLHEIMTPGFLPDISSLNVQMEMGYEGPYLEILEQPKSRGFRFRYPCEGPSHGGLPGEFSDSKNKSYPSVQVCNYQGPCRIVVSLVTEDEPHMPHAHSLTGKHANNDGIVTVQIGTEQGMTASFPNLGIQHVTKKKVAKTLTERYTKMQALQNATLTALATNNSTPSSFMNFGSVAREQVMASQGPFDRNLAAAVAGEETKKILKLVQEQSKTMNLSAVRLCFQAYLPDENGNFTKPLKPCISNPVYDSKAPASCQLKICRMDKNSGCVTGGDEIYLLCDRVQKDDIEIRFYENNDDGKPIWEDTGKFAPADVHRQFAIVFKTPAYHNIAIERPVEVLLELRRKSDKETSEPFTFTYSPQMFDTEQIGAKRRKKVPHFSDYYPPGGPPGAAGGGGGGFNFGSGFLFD
# [2] = biological target: T2, GST-Nv-NF-kB (Cys allele) (UniProt E5G601)
# T2 sequence: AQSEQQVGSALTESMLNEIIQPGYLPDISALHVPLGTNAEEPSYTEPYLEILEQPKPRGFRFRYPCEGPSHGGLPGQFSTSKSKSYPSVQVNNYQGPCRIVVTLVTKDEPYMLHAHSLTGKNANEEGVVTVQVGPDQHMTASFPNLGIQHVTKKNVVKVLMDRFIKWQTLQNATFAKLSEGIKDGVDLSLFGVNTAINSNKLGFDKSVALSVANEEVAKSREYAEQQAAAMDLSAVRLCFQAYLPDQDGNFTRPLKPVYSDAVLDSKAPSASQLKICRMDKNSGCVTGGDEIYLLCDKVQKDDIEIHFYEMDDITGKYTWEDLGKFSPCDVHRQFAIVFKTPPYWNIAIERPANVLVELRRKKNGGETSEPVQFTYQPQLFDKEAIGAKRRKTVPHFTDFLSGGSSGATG
# [3] = biological target: T3, GST-Co-NF-kB (UniProt F1ARL5)
# T3 sequence: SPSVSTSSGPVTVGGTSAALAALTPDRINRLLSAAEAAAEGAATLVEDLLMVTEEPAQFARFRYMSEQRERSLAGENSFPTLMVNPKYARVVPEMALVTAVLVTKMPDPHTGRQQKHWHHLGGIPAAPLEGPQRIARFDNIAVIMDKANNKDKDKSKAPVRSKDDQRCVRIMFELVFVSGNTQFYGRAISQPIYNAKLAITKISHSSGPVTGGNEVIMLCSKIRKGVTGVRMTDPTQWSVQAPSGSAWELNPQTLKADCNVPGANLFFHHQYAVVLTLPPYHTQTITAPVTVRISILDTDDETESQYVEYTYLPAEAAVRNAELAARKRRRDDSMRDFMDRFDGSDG
# [4] = biological target: T4, GST-Dm-Relish (UniProt Q94527)
# T4 sequence: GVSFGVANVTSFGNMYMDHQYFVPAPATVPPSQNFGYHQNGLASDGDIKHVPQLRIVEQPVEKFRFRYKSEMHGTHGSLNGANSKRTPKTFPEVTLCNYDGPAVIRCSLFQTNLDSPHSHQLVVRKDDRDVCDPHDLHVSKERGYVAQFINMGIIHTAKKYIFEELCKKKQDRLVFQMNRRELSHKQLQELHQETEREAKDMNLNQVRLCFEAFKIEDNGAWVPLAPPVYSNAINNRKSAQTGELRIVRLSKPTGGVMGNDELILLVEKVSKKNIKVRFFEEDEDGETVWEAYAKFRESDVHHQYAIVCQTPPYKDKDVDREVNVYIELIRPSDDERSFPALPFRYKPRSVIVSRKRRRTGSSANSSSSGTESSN
# [5] = biological target: T5, GST-Aq-NF-kB (UniProt A9Y5G7)
# T5 sequence: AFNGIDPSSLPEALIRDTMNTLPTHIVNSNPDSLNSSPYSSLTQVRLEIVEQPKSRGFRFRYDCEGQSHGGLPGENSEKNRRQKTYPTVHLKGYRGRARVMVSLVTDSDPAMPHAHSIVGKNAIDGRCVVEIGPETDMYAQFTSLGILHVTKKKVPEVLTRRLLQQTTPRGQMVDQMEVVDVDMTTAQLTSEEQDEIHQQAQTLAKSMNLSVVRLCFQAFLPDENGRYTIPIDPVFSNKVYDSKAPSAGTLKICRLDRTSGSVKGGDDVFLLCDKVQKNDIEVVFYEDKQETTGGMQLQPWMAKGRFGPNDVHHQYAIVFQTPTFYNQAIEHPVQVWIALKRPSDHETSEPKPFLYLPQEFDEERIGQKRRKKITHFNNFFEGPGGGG
Sequence,binding signal [1],binding signal [2],binding signal [3],binding signal [4],binding signal [5]
CCGATTAACATCATATGAGGACCTGATGTTAATCGGGTCTTGATTCGCTTGACGCTGCTG,-0.304 z-score,-0.632 z-score,0.258 z-score,-0.242 z-score,-0.248 z-score
CCGATTAACATCAGTCTACAACCTGATGTTAATCGGGTCTTGATTCGCTTGACGCTGCTG,-0.429 z-score,-1.2 z-score,-1.33 z-score,-0.386 z-score,-0.635 z-score
CCGATTAACATCATTGGAACGCATGATGTTAATCGGGTCTTGATTCGCTTGACGCTGCTG,-0.364 z-score,-0.38 z-score,-0.33 z-score,-0.552 z-score,-0.495 z-score
CCGATTAACATCAAGGAATTCCGTGATGTTAATCGGGTCTTGATTCGCTTGACGCTGCTG,0.373 z-score,-0.0597 z-score,0.42 z-score,1.78 z-score,1.75 z-score
CCGATTAACATCACTTACCTTGTTGATGTTAATCGGGTCTTGATTCGCTTGACGCTGCTG,0.00893 z-score,0.442 z-score,0.443 z-score,-0.0144 z-score,-0.0505 z-score
CCGATTAACATCACGGATTTAATTGATGTTAATCGGGTCTTGATTCGCTTGACGCTGCTG,-0.628 z-score,-0.136 z-score,0.118 z-score,0.247 z-score,-0.163 z-score
CCGATTAACATCACGTGACTTATTGATGTTAATCGGGTCTTGATTCGCTTGACGCTGCTG,-0.314 z-score,-0.491 z-score,0.0465 z-score,0.339 z-score,-0.421 z-score
CCGATTAACATCATTTCTCCTATTGATGTTAATCGGGTCTTGATTCGCTTGACGCTGCTG,-0.0258 z-score,-0.0265 z-score,0.422 z-score,-0.261 z-score,-0.206 z-score
CCGATTAACATCACCGTTTAGGTTGATGTTAATCGGGTCTTGATTCGCTTGACGCTGCTG,0.0382 z-score,0.291 z-score,-0.242 z-score,0.731 z-score,0.0671 z-score
CCGATTAACATCACGTCTCCATGTGATGTTAATCGGGTCTTGATTCGCTTGACGCTGCTG,-0.537 z-score,0.756 z-score,0.176 z-score,0.787 z-score,-0.414 z-score
CCGATTAACATCAGTGGTCATTCTGATGTTAATCGGGTCTTGATTCGCTTGACGCTGCTG,-0.37 z-score,-0.458 z-score,-0.144 z-score,-0.362 z-score,-0.455 z-score
CCGATTAACATCATTTGGACTTATGATGTTAATCGGGTCTTGATTCGCTTGACGCTGCTG,-0.69 z-score,-0.835 z-score,-0.462 z-score,-0.346 z-score,0.0798 z-score
